Measurements reported in PubChem BioAssay AID588855 (National Center for Advancing Translational Sciences (NCATS), 2011).
The whole screen tested about 410,000 compounds, of which about 5,000 (1.2%) were called active. This list was built around the results that the source calls inconclusive (neither active nor inactive); the mix of calls is not that of the screen. The call rests on the fitted dose curve; in most records, active means well fitted inhibition curve with a large enough effect; inconclusive means small, poorly fitted or top-dose-only effect; inactive means no such curve, though single readings can be large or run the other way. Potencies beside an inconclusive call are fits to weak or partial responses and may not hold up.

Test: qHTS for Inhibitors of TGF-b; further: nearly all actives have a fitted effect of over 65% in size
Conditions: HepG2 CAGA-GFP TGF-b/SMAD3 reporter, GFP fluorescence, 18 h, TGF-beta stimulated, 500 pg/mL final; series mostly up to 46.1 µM; activity, negative = inhibition: at the top concentration
Outline: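 GFP signal (ex488/em500-530) from TGF-beta-stimulated HEPG2 CAGA-GFP cells, 500 pg/mL final, 18 h at 37 degrees C in DMEM plus 1% FBS, normalized to unstimulated and DMSO-stimulated controls.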
On the % scale 0 is the no-effect control and ±100 the full control effect; potency means the concentration at half of the fitted maximal effect; tags describe the fitted curve by direction and shape.

Compound | Potency | activity, negative = inhibition
c1ccc(-c2cncn2-c2ccccc2)cc1 | inconclusive: 22.4 µM [inhibitor, partial curve, poor fit] | –
O=C(c1cc2ccccc2cc1O)N1CCN(c2ccccc2O)CC1 | inconclusive: 35.5 µM [inhibitor, single point] | –
COC(=O)C1=CN(c2cc(C)cc(C)c2)C=C(C(=O)OC)C1c1cccc(F)c1 | – | inactive: -5.12%
CCOC(=O)CN(C)S(=O)(=O)c1ccc(-c2cc(C(=O)OC)sc2C(F)(F)F)cc1 | inconclusive: 14.1 µM [inhibitor, partial curve, poor fit] | –
O=C(C[N+]12CCCc3cccc(c31)CCC2)c1ccccc1 | inconclusive: 35.5 µM [inhibitor, single point] | –
O=C(c1ccccc1)N1CCN(c2ccc([N+](=O)[O-])cc2-n2cccc2)CC1 | inconclusive: 11.2 µM [inhibitor, single point] | –
Cn1cnc([N+](=O)[O-])c1Sc1nc(N)nc2c1ncn2C1OC(CO)C(O)C1O (configuration not stated) | active: 2 µM | –
CCCOc1ccc(CSCCNC(=S)Nc2ccccc2)cc1 | inconclusive: 25.1 µM [inhibitor, single point] | –
Cc1ccc(C2=CC(c3ccccc3F)n3c(nc4ccccc43)N2)cc1C (configuration not stated) | inconclusive: 17.8 µM [inhibitor, single point] | –
O=C(c1ccc2c(c1)CCCC2)N1CCN(c2nc3c(F)cccc3s2)CC1 | – | inactive: 9.98%
Cn1c(=O)c2c(nc(CN3CCN(Cc4ccccc4)CC3)n2Cc2ccc(Cl)cc2)n(C)c1=O | inconclusive: 35.5 µM [inhibitor, single point] | –
CCn1cc(C(=O)NCc2ccccc2)c(=O)c2cc(S(=O)(=O)N3CCc4ccccc4C3)ccc21 | inconclusive: 0.316 µM [inhibitor, full curve, poor fit] | –
OCCNc1nc(C2CC2)nc2c1nnn2Cc1ccccc1Cl | – | inactive: -8.62%
O=C(CSc1nc2c(c(=O)[nH]1)CCC2)Nc1ccccc1C(F)(F)F | – | inactive: -0.172%
COc1ccc(S(=O)(=O)c2c(C)c(NS(=O)(=O)c3ccccc3)cc(C)c2O)cc1 | inconclusive: 35.5 µM [inhibitor, single point] | –
O=C(NOCc1ccccc1)c1coc(-c2ccccc2)n1 | – | inactive: -6.99%
COc1ccc(Cn2cc(C(=O)c3ccc(C)cc3)c(=O)c3cc(OC)c(OC)cc32)cc1 | inconclusive: 35.5 µM [inhibitor, single point] | –
Cc1onc(-c2ccccc2)c1C(=O)OCCOc1cccc(Cl)c1 | inconclusive: 35.5 µM [inhibitor, single point] | –
O=[N+]([O-])c1ccc(/C=N/NC(=S)Nc2ccc(Cl)cc2Cl)s1 | inconclusive: 14.1 µM [inhibitor, single point] | –
Brc1ccc(CN2CCN(Cc3c[nH]c4ccccc34)CC2)cc1 | inconclusive: 35.5 µM [inhibitor, single point] | –
CCn1c(SCc2nc3sc(C(=O)O)c(C)c3c(=O)[nH]2)nnc1-c1ccc(Cl)cc1 | – | inactive: -30.2%

Compound | Potency | activity, negative = inhibition
Nc1ccc(N2CCCCC2)c2nonc12 | active: 12.6 µM | –
Cc1cccc(-n2ccnc2SCC(=O)Nc2ccc3c(c2)OCCO3)c1 | – | inactive: -9.89%
COC(=O)c1cc(NCc2c(F)cccc2Cl)ccc1N1CCOCC1 | inconclusive: 3.98 µM [inhibitor, single point] | –
O=C(CCn1nnnc1CN1CCOCC1)N1CCC(c2ccccc2Cl)C1 (configuration not stated) | inconclusive: 6.31 µM [inhibitor, single point] | –
CCN(CC)C(=O)C1=C(C)N(Cc2ccccc2)C(=O)C(CC(=O)NC(c2ccccc2)c2ccccc2)C1 (configuration not stated) | inconclusive: 35.5 µM [inhibitor, single point] | –
CC(=O)c1ccc(N2CCN(C(=O)C(=O)c3c(C)[nH]c4ccccc34)CC2)cc1 | – | inactive: -14.6%
CCc1ccc(N2C(=O)CSC23C(=O)N(Cc2ccc(C)cc2)c2ccccc23)cc1 (configuration not stated) | inconclusive: 35.5 µM [inhibitor, single point] | –
CC(C)C(=O)Nc1ccc(S(=O)(=O)Nc2nccc(/C=C/c3ccccc3)n2)cc1 | inconclusive: 0.891 µM [inhibitor, partial curve] | –
CC[C@@]1(C(=O)OC)N[C@H](CN(C)C(=O)c2ccccc2)[C@@H]2C(=O)N(Cc3ccccc3)C(=O)[C@@H]21 | inconclusive: 5.62 µM [inhibitor, single point] | –
Cc1c2c(nc3c(C(=O)NC4CC4)cnn13)CCCC2 | inconclusive: 17.8 µM [inhibitor, single point] | –
CCCCNC1=CC(=O)C(=O)c2ccccc21 | active: 3.55 µM | –
Cc1nc2c(C(=O)NCCc3ccc(Cl)cc3)c[nH]n2c(=O)c1Cc1ccc(Cl)cc1 | inconclusive: 35.5 µM [inhibitor, single point] | –
COc1ccccc1C(=O)Nc1c(C(=O)N(C)Cc2ccccc2)sc2nc(C)c(Cl)c(C)c12 | inconclusive: 35.5 µM [inhibitor, single point] | –
Cc1ccc(C)c(CNc2ccc(S(=O)(=O)N3CCCCC3)cc2)c1 | inconclusive: 11.2 µM [inhibitor, partial curve] | –
CN1CCN(C2Cc3cc(Cl)ccc3Sc3cc(F)ccc32)CC1 (configuration not stated) | inconclusive: 22.4 µM [inhibitor, single point] | –
C[C@H](NC(=O)c1nc[nH]c1C(=O)N[C@@H](C)c1ccccc1)c1ccccc1 | inconclusive: 17.8 µM [inhibitor, single point] | –
CC(OC(=O)c1cc(S(=O)(=O)N(C)C)ccc1N1CCCC1)C(=O)NCc1ccccc1 (configuration not stated) | inconclusive: 5.01 µM [inhibitor, single point] | –
COC(=O)c1cc(NC(=O)CC2SC(=Nc3ccccc3)N(CCc3c[nH]c4ccccc34)C2=O)cc(C(=O)OC)c1 (configuration not stated) | – | inactive: -15.7%
Cc1ccc2c(c1)-c1nc(-c3ccc4c(c3)NC(=O)CO4)cc(-c3ccc(F)cc3)c1CO2 | – | inactive: -5.39%
CN(CCCNC(=O)CSc1cc(=O)n(C)c2cc(Cl)ccc12)Cc1ccccc1 | inconclusive: 35.5 µM [inhibitor, single point] | –
Cc1cc(Br)cn2c(Cc3cccc(F)c3)c(-c3cccc(Br)c3)nc12 | inconclusive: 12.6 µM [inhibitor, partial curve, poor fit] | –
